Measurements: the supplement of paper PMC11417369
The list shows a part of the results.

test system: PF3D7_0420300 AP2 domain 1 (GST-tagged); assay: gcPBM binding intensity (ln(normalized median fluorescence intensity)); higher = stronger DNA binding
In short: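 Probes on an Agilent 4 × 180k array were primer-extended, double-stranded and 36 bp long, taken from intergenic genomic regions, with negative controls added. GST-tagged P. falciparum DNA-binding domains from E. coli, about 25 μg on average, were applied to the array for 1 h in 1× PBS containing 1% milk, 0.2 mg/ml BSA, 0.5% salmon testes DNA and 0.03% Triton X-100. Binding intensity, obtained after Alexa488 anti-GST antibody detection and a 488 nm scan, is the highest Masliner-normalised natural-log median intensity across replicate spots of either probe orientation.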

First: TCATATAATCAAATATGTACATATTTTCAATTGAAT [XGTACX_site6831]
Second: ATATAATTTGATGGTTAACACACATATATATTATAT [CACACA_site8775]
The “gcPBM binding intensity (ln)” value of the first is lower: 9 for the first, 9.46 for the second.

Compared with “TTATTTATTTTTTATACACACAATTATCTTTTTAAG [CACACA_site6162]”, “ATATTTATTTAATGAACACACGATATATTATTTTAT [CACACA_site1602]” is lower in “gcPBM binding intensity (ln)” value: 9.46 for the first, 9.34 for the second.

Going from “ATATAGAATATATTAACATGCAATAAGTAAAGGGGG [TGCATGCA_site1022]” to “ACAATGAAATATTCATGTACATATAAATAATAGTGT [XGTACX_site3762]”, the “gcPBM binding intensity (ln)” value falls from 9.96 to 9.32.

Compared with “CACTTCATAAAAATTGCACACATATAATAATGTACA [CACACA_site8692]”, “TACAAAATACAAAAATGTACATAAAAATTTATAAAA [XGTACX_site6861]” is lower in “gcPBM binding intensity (ln)” value: 9.31 for the first, 9.17 for the second.

Compared with “TACAGATACGGACACACACACACACCCAGACAAAAA [CACACA_site4432]”, “ATATTAAAATATAATCGTACAATTAAATTTTTTTTT [XGTACX_site2739]” is lower in “gcPBM binding intensity (ln)” value: 10 for the first, 8.97 for the second.

Going from “AATAAATAAAAAATTACACACATATTTATAAATATA [CACACA_site7584]” to “AAGATAAACTTTTTTAATTAATTTAATTTTTTTTTT [GTGCAC_negctrl_site386]”, the “gcPBM binding intensity (ln)” value falls from 9.54 to 8.98.

Going from “ATATATATATATATTCCACACACACCCAAAAAAAAA [CACACA_site9215]” to “TAAAATAAGTTAAAAAGTACATAATTATAATAAATA [XGTACX_site8108]”, the “gcPBM binding intensity (ln)” value falls from 9.84 to 9.29.

Going from “CACAAAAATAAATATAAACACACAATAAATAAATAA [CACACA_site8197]” to “TTTGTTTTTATTTACACATGCAAAAAAAAAAAAAAA [TGCATGCA_site655]”, the “gcPBM binding intensity (ln)” value falls from 9.75 to 8.66.

First: TTATAATAGTTAATATGTACATATTTAATAAATAAT [XGTACX_site3183]
Second: TATGTGTATAATAAAAGTACATATATTATTATATAA [XGTACX_site8556]
The “gcPBM binding intensity (ln)” value of the first is lower: 9.09 for the first, 9.21 for the second.

Compared with “TATTTCGTAATTTAATAATATACAAGAAATATATAT [XGTACX_negctrl_site143]”, “ATTGACGTCATATAAACATGCACATTTTGGATGTTT [TGCATGCA_site985]” is higher in “gcPBM binding intensity (ln)” value: 8.95 for the first, 9.19 for the second.

Compared with “TAAAATAATAAAACAACACACAAATAGTTAAAATAG [CACACA_site1680]”, “CATATAATAAAAAATGTACACACATAAGAAAATTTA [CACACA_site8943]” is lower in “gcPBM binding intensity (ln)” value: 9.92 for the first, 9.68 for the second.

Going from “TAAATATAATAAGAACAAACAAAATAGTACAATATA [TGCATGCA_negctrl_site364]” to “TTTTTTTTAAATTGTGGTACACAAATTCATATATAT [XGTACX_site8944]”, the “gcPBM binding intensity (ln)” value falls from 9.6 to 8.98.

Going from “TGTTAACTTAAAAAAATACCTACGGAAAAATCACAA [TGCATGCA_negctrl_site433]” to “GTCATATTATTATTACGTACTTAAATATATAATATA [XGTACX_site3405]”, the “gcPBM binding intensity (ln)” value falls from 9.3 to 9.26.

Compared with “AAAAGAAAAAAAAGTACACACATGTATATTAATCGT [CACACA_site2528]”, “ATTCAAAATTATAGGTGTACGTATTTTTTTTTTTTT [XGTACX_site7177]” is lower in “gcPBM binding intensity (ln)” value: 9.79 for the first, 9.29 for the second.

First: AGATGATATAATGGCACACAAATATTTTATTATAAA [CACACA_site3553]
Second: TAAATTTATAAATCACGTACATATTTATTTATATTT [XGTACX_site4532]
The “gcPBM binding intensity (ln)” value of the first is higher: 9.38 for the first, 9.19 for the second.

Compared with ATAATTTCATAATACGTGCACATAATATATAAAAAA, “TACTATTTAAAATATGAACACACATTATTTGTTTTA [CACACA_site8870]” is higher in “gcPBM binding intensity (ln)” value: 9.17 for the first, 9.35 for the second.

Compared with “CACAAAAATAAACACACACACATATATATTTATTAT [CACACA_site5923]”, “TAAATTAAAAGACACACACACAAAAAAAAAAAAAAA [CACACA_site7131]” is lower in “gcPBM binding intensity (ln)” value: 10.2 for the first, 9.66 for the second.

Compared with “GGAAACTAAAGGAATAAAACTATGGAAATTAATTAA [CACACA_negctrl_site1647]”, “TTTTACACTTTTTTTTGTACACACTAAAAAGATTAA [XGTACX_site8407]” is higher in “gcPBM binding intensity (ln)” value: 9.2 for the first, 9.21 for the second.

First: AAAGGTTCATAAAAATGTACATAATTATTTACATGT [XGTACX_site2722]
Second: CAAATCATATATAGCACACAAATTCTTTATTATTAT [CACACA_site2815]
The “gcPBM binding intensity (ln)” value of the first is lower: 9.12 for the first, 9.38 for the second.

Going from “CTGATCCACATTTATACACACCTCGGTTTGTAGAGA [CACACA_site4393]” to “AAAATATATAATATTTGTACATATTGATGGCAACAG [XGTACX_site6454]”, the “gcPBM binding intensity (ln)” value falls from 9.64 to 9.3.

First: ATATGAATATATATATGTACTAATTAGTAGTTTACG [XGTACX_site6273]
Second: AATAAAAATATATCCACACACATATATATATATGTA [CACACA_site576]
The “gcPBM binding intensity (ln)” value of the first is lower: 9.4 for the first, 9.56 for the second.

Going from “GAAGATATGTAAAATTGTACATATTATTTTATTTTA [XGTACX_site5302]” to “AGAAATTTACAAATACGTACACACATATATATATAT [XGTACX_site3141]”, the “gcPBM binding intensity (ln)” value rises from 9.06 to 9.66.

Compared with TCATAACAACTTTGTGTGCACATAAAACATGTATAT, “TATAAGACATGATATATACACACCTTGTTTTAATTT [CACACA_site2266]” is lower in “gcPBM binding intensity (ln)” value: 9.53 for the first, 9.41 for the second.

Going from “TTTTTTTTTTCATTCACACAAAAAAAAAAAATTTAT [CACACA_site5921]” to “AAGTATGGAAAGGAATATAAATTAATACTTTCATTG [XGTACX_negctrl_site131]”, the “gcPBM binding intensity (ln)” value rises from 8.72 to 9.08.

First: CTTATATATTGCCCTTCACACACACCCATATATATA [CACACA_site8795]
Second: AAGACAACATAAATATGTACATATATTTATTATTTT [XGTACX_site1792]
The “gcPBM binding intensity (ln)” value of the first is higher: 10.1 for the first, 9.21 for the second.

Going from “TACAAAAAGAATGAAAAATATATAATAAAAATAAAA [XGTACX_negctrl_site159]” to “CACATACCTATATACACACACAAAATAATAAAATAA [CACACA_site7150]”, the “gcPBM binding intensity (ln)” value rises from 9.23 to 10.

Compared with “ACTAATATTTTATAAAGTACAAATTAATAAAATTCA [XGTACX_site5817]”, “AGAATGGATTAGCTAGCACACACAAAAAAAAAAAAA [CACACA_site8995]” is higher in “gcPBM binding intensity (ln)” value: 9 for the first, 9.26 for the second.

Going from “TATATATATATATTGACACACATGTATTTCAATATT [CACACA_site2832]” to “ATATATATATGTAAGAGTACACAAAAATATGTATGT [XGTACX_site4335]”, the “gcPBM binding intensity (ln)” value rises from 9.33 to 9.5.

First: TTTTGTAGATATGACTGTACATATTTTATACATAAC [XGTACX_site971]
Second: AAAAAATAAATAAATACACACAAATATATATATATA [CACACA_site2543]
The “gcPBM binding intensity (ln)” value of the first is lower: 9.19 for the first, 9.6 for the second.

First: AAGAAAAAAAAAATTACACACTGCGCAGATACACAA [CACACA_site1289]
Second: TGGTAATCCACATACACACACACATACACATATATA [CACACA_site2727]
The “gcPBM binding intensity (ln)” value of the first is lower: 9.69 for the first, 10.1 for the second.

Compared with “TAATATGTATATAAAAGTACAGACGATTATAATTAT [XGTACX_site173]”, “AAATAAATAAAAAACACACACAAATAAATAAATATA [CACACA_site2249]” is higher in “gcPBM binding intensity (ln)” value: 9.57 for the first, 10.1 for the second.

Going from “TATTTTTTCCTTTGTTTTTTAAACTATCTTAACTAA [XGTACX_negctrl_site519]” to “ATATAATAAATATATTGTACATATGAATCTACTAAA [XGTACX_site7610]”, the “gcPBM binding intensity (ln)” value falls from 9.23 to 9.05.

Going from “TAAAAAATGATAGAAGTGCATAAAATAATATATATA [GTGCAC_site9904]” to “TTTCTATTTCCTTCACATCTTTTCATCTTTTTTTTT [CACACA_negctrl_site1110]”, the “gcPBM binding intensity (ln)” value rises from 9.43 to 9.71.

First: GACTTGAAGAAATAAGTGCAGAGTTTTATTTTAATT [GTGCAC_site9912]
Second: AAAAAATTCCTATATACACACACGCACATATTTATA [CACACA_site6192]
The “gcPBM binding intensity (ln)” value of the first is lower: 9.12 for the first, 9.82 for the second.

Compared with “AAGGAATATATATACATACACACATATATATATATA [CACACA_site1665]”, “AGTGGATGAGGACATACACACACACCGAAGTTGATA [CACACA_site9132]” is higher in “gcPBM binding intensity (ln)” value: 9.43 for the first, 9.77 for the second.

Compared with “AAAAAAAAAAAAAAAAAAAAAAATATATATATATAT [XGTACX_negctrl_site33]”, “AATAAAAAGGAAAGGTATATGTGTGCCCTTGTGTTA [TGCATGCA_negctrl_site83]” is higher in “gcPBM binding intensity (ln)” value: 9.26 for the first, 9.43 for the second.

Going from “AAATTTTCATGTGTTGCATGCTGAACTATTTTATCA [TGCATGCA_site856]” to “TACACCATGATACATACACACAGACATATACTCATT [CACACA_site4708]”, the “gcPBM binding intensity (ln)” value rises from 9.19 to 9.77.

Going from “TCCAAATGTTTGCGTTGTACTCTTTTTTTAAAACTA [XGTACX_site5148]” to “CCTGAAATTTTATTATGTACATATTATAAAATGATT [XGTACX_site1434]”, the “gcPBM binding intensity (ln)” value falls from 9.28 to 9.02.

Going from “TGGCACTAAAAAAATAAACACACAGATTTATATAAT [CACACA_site8386]” to “ATAACCACATAAAATATAATTATATATATATATATA [CACACA_negctrl_site603]”, the “gcPBM binding intensity (ln)” value falls from 9.47 to 9.26.

Compared with “ATTCCTCCCATGGAATGTACTCATCAAATAAATAAA [XGTACX_site6543]”, “TTTATTAATAAGAAATGTACACAAAATTATTTCCAA [XGTACX_site5970]” is higher in “gcPBM binding intensity (ln)” value: 8.94 for the first, 9.02 for the second.

Compared with “ATAGAGTCATTCCTCACACACACGCTATATGAATAG [CACACA_site2047]”, “TAATTAAAATTAAGAAGTACATTTTACTTTTAATGC [XGTACX_site5120]” is lower in “gcPBM binding intensity (ln)” value: 9.86 for the first, 9 for the second.

First: AAAAAATACTTATAAAGTACTAATATATATAAGCAG [XGTACX_site743]
Second: GAGAAATTTATACATACACACATATATATATTATAT [CACACA_site4038]
The “gcPBM binding intensity (ln)” value of the first is lower: 9.33 for the first, 9.55 for the second.

First: TATCATGTTTTTATGGTGCATGAAATCACACATTGA
Second: AATACAAACCAAAAAGTAAATACATCAACATGATCA [CACACA_negctrl_site140]
The “gcPBM binding intensity (ln)” value of the first is lower: 9 for the first, 9.56 for the second.

First: CAAATATGTCTTATTCGTACACATATATATATATAT [XGTACX_site8817]
Second: AAGAAAATAAAAAATAAGCATAATATGATATGATAT [TGCATGCA_negctrl_site196]
The “gcPBM binding intensity (ln)” value of the first is lower: 9.44 for the first, 9.62 for the second.
